In US20240116985A1, “STAPLED PEPTIDES AND METHODS THEREOF” (priority 2020, published 2024):
At least one peptide structure holds a part that was inferred or is arguable (an end, a ring closure or a residue).

Assays:
[1] = target: T1, beta-catenin/TCF4 engagement (Homo sapiens, UniProt P35222); assay: Nano-BRET target engagement assay (B-cat-Halo & TCF4-Luc in HEK293 cells); type: cell-based; settings: absolute IC50; read-out: NanoBRET Abs IC50
T1 construct: expressed in transfected cells; host or cells: HEK293
T1 sequence (P35222 1-781): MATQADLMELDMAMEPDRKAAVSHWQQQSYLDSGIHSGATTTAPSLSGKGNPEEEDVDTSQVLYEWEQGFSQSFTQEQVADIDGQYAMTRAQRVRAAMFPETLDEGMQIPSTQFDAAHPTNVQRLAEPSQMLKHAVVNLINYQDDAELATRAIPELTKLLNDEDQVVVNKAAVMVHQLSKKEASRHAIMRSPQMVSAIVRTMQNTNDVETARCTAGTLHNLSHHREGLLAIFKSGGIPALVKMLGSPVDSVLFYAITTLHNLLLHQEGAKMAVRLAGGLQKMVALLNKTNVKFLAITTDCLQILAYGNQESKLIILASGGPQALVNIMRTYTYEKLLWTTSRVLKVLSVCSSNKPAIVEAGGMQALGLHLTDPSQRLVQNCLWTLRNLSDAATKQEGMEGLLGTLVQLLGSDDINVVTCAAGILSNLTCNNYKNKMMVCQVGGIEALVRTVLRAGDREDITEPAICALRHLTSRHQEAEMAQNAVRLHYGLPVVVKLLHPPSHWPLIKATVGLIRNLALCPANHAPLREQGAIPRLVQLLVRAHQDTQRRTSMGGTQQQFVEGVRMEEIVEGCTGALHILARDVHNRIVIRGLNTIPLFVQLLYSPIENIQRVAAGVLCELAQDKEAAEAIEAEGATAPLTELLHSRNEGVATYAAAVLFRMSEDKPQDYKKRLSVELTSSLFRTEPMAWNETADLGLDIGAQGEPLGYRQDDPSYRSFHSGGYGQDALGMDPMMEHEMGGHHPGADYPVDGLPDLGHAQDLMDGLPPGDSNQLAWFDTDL

[2] = test system: TCF/LEF luciferase Reporter in DLD1 cells; assay: TCF reporter assay (DLD1 TCF/LEF luciferase reporter, Bright-Glo); type: cell-based; settings: read-out: DLD1 4% Abs IC50, absolute IC50
Description: Those skilled in the art will appreciate that other suitable reagents may be utilized and various parameters may be adjusted.
DLD1 reporter cell line was generated by using TCF/LEF luciferase Reporter Lentivirus (BPS Bioscience Catalog #79787). Parental DLD1 cells (ATCC@ CCL-221) were transfected with the lentivirus and followed by 3-day puromycin selection. Single clone was selected for Reporter assay.
On Day 1, cultured cells in flasks that are no more than about 60-70% confluent were washed with PBS and typsinized in 3 mL/T75 until cells were free floating. Spin down cells for 5 minutes at 1100RPM. While cells spin, determine the number of plates (3 compounds per plate) needed. After spinning, aspirate the supernatant gently and add 10 mL media (RPMI+4% FBS), and re-suspend and mix the cells gently. Count the cells twice in the cell counter Countess and take average of both the counts, and determine how many cells are needed. After plating cells at 5000 cells/well, seal with aerseal film. 90 uL cells/well. Incubate at 37° C. overnight, tap gently to mix and don't stack plates.
On Day 2, compounds were added. Stock solution was 10 mM. Make the DMSO containing media by adding 36 uL DMSO to 10 mL of media. Make the dilution wells by transferring 100 uL DMSO+Media into rows B-F of a protein LoBind 96-well plate. Row G is empty. Add any extra DMSO+media to row H. Transfer 4 uL of stock solution to Row A. One compound per column. Add 196 uL media to Row A, no DMSO in the media. Concentration of Row A was 200 uM. Mix well and do a 6 pt, 1:2 serial dilution, mix ×10 per transfer and change tips before each transfer. Removed excess volume from final well (row F) and discard. Transfer 10 uL of the compound containing media to cells with a multichannel according to plate maps. Add 60 uL DMSO containing media to the DMSO wells. The edge wells were typically not used in the assay and could be ignored if needed or replaced with PBS, but there typically were liquids in the wells. Cover plates with breathable plate sealer and incubate overnight.
A 96-well plate may be utilized to prepare dilution series for up to 12 compounds, each with several concentrations (e.g., 200, 100, 50, 25, 12.5, 6.25 and 0 uM; can be utilized as 100× depending on final test concentrations).
0 uM is the DMSO control for the whole plate. Edge well filled with 90 uL cells+10 uL DMSO containing media.
On Day 3, luciferase levels were assessed using Bright-Glo (Promega). Equilibrate Bright-Glo to room temperature before addition. 7 mL of mixed Bright-Gbo per plate. Unused Bright-Glo could be store at −80° C. Reconstituted reagent can be stored for up to 1 month at −80° C., or after one freeze-thaw. When ready to read, remove plates from incubator and let sit at room temperature for 15 minutes. Typically stagger taking out plates if reading multiple plates before adding the Bright-Glo. Add 90 uL/well Bright-Glo and shake gently for 3 minutes. Read luminescence on GloMax immediately using ‘BrightGlo’ programs.
Cellular activity was assessed using CTG. Equilibrate CTG reagents to room temperature. Equilibrate plates to room temp, e.g. 15 min. Use same time length for all plates. Add CTG reagent, 25 uL if using undiluted, or 90 uL if diluted 1 to 4. Shake for 2 min to induce cell lysis. Allow plate to incubate at RT for 10 min to stabilize lumine sent signal. Read luminesence using program ‘CellTiter-Glo’. Use Prism to find the Absolute IC50 (AbsIC50=X[50]) of each compound.

[3] = target: T2, full-length beta-Catenin (Uniprot ID P35222) (Homo sapiens, UniProt P35222); assay: Fluorescence polarization IC50 (beta-catenin / 5FAM-TCF4 10-53 competition); type: binding; settings: fluorescence polarization; read-out: beta-Catenin FP IC50
T2 construct: 10 nM full-length beta-Catenin (Uniprot ID P35222)
T2 sequence (P35222 1-781): T1 sequence (P35222 1-781)

SMILES	IC50 [1]	IC50 [2]	IC50 [3]
CC(=O)N1CCC[C@]12CC=CCCCC1(CCCC=CCCCOC(=O)N3CC[C@@](C(=O)N[C@@H](Cc4ccccc4C(F)(F)F)C(=O)N[C@@H](Cc4csc5ccccc45)C(=O)N[C@@H](CO)C(N)=O)(C3)NC(=O)[C@H](CC(C)C)NC(=O)[C@H](Cc3ccccc3)NC(=O)[C@H](C)NC(=O)[C@H](C)NC(=O)[C@H](Cc3cccc(C(=O)O)c3)NC(=O)[C@H](CC(=O)O)NC1=O)NC(=O)[C@H](CC(C)(C)C)NC(=O)[C@H](CC(=O)O)NC2=O (stereo partly drawn) [I-1336, PL3-Asp-Npg-B5-Asp-3COOHF-Ala-Ala-Phe-Leu-PyrS2-2F3MeF-BztA-Ser-NH2]	2700 nM	700 nM	29 nM
CC(=O)N1CCC[C@]12CC=CCCCC1(CCCC=CCCCOC(=O)N3CC[C@@](C(=O)N[C@@H](Cc4ccccc4Cl)C(=O)N[C@@H](Cc4csc5ccccc45)C(=O)N[C@@H](CCC(N)=O)C(N)=O)(C3)NC(=O)[C@H](Cc3ccccc3)NC(=O)[C@H](Cc3ccccc3)NC(=O)[C@H](C)NC(=O)[C@H](C)NC(=O)[C@H](Cc3cccc(C(=O)O)c3)NC(=O)[C@H](CC(=O)O)NC1=O)NC(=O)[C@H](CC(C)(C)C)NC(=O)[C@H](CC(=O)O)NC2=O (stereo partly drawn) [I-1338, PL3-Asp-Npg-B5-Asp-3COOHF-Ala-Ala-Phe-Phe-PyrS2-2C1F-BztA-Gln-NH2]	3600 nM	3400 nM	10 nM
CC(=O)N1CCC[C@]12CC=CCCCC1(CCCC=CCCCOC(=O)N3CC[C@@](C(=O)N[C@@H](Cc4ccccc4C(F)(F)F)C(=O)N[C@@H](Cc4csc5ccccc45)C(=O)N[C@@H](CCC(N)=O)C(N)=O)(C3)NC(=O)[C@H](Cc3ccccc3)NC(=O)[C@H](Cc3ccccc3)NC(=O)[C@H](C)NC(=O)[C@H](C)NC(=O)[C@H](Cc3cccc(C(=O)O)c3)NC(=O)[C@H](CC(=O)O)NC1=O)NC(=O)[C@H](CC(C)(C)C)NC(=O)[C@H](CC(=O)O)NC2=O (stereo partly drawn) [I-1341, PL3-Asp-Npg-B5-Asp-3COOHF-Ala-Ala-Phe-Phe-PyrS2-2F3MeF-BztA-Gln-NH2]	3500 nM	3200 nM	17 nM
